# Experimental data published in the supplement of paper PMC8728848.
# Some of the results follow.
# What was measured:
# Test in all cases: glycan array binding signal (z-score within array); higher = stronger binding
# Settings in all cases: glycan notation: IUPAC condensed, linker removed
# [1] = target: Fuc(a1-2)Gal
# Summary of the method: (§1)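 Glycan array data came from 3228 arrays in the Consortium for Functional Glycomics database, and only arrays with an available protein sequence were kept. Glycan names were put into IUPAC-condensed notation, and columns mapping to the same glycan were averaged. The binding signal is a within-array Z-score, averaged across arrays of one protein sequence run at different concentrations or buffers and across linkers. A negative Z-score can be read as non-binding.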
# [2] = target: Fuc(a1-2)Gal(b1-3)GalNAc
# Summary of the method: as §1
# [3] = target: Fuc(a1-2)Gal(b1-3)GalNAc(a1-3)[Fuc(a1-2)]Gal(b1-4)Glc
# Summary of the method: as §1
# [4] = target: Fuc(a1-2)Gal(b1-3)GalNAc(a1-3)[Fuc(a1-2)]Gal(b1-4)GlcNAc
# Summary of the method: as §1
# [5] = target: Fuc(a1-2)Gal(b1-3)GalNAc(b1-3)Gal
# Summary of the method: as §1
# [6] = target: Fuc(a1-2)Gal(b1-3)GalNAc(b1-3)Gal(a1-4)Gal(b1-4)Glc
# Summary of the method: as §1
# [7] = target: Fuc(a1-2)Gal(b1-3)GalNAc(b1-4)[Neu5Ac(a2-3)]Gal(b1-4)Glc
# Summary of the method: as §1
# [8] = target: Fuc(a1-2)Gal(b1-3)GlcNAc
# Summary of the method: as §1
# [9] = target: Fuc(a1-2)Gal(b1-3)GlcNAc(b1-2)Man(a1-3)[Fuc(a1-2)Gal(b1-3)GlcNAc(b1-2)Man(a1-6)]Man(b1-4)GlcNAc(b1-4)GlcNAc
# Summary of the method: as §1
# [10] = target: Fuc(a1-2)Gal(b1-3)GlcNAc(b1-2)Man(a1-3)[Fuc(a1-2)Gal(b1-3)GlcNAc(b1-2)Man(a1-6)]Man(b1-4)GlcNAc(b1-4)[Fuc(a1-6)]GlcNAc
# Summary of the method: as §1
# [11] = target: Fuc(a1-2)Gal(b1-3)GlcNAc(b1-3)Gal(b1-4)Glc
# Summary of the method: as §1
# [12] = target: Fuc(a1-2)Gal(b1-3)GlcNAc(b1-3)GalNAc
# Summary of the method: as §1
# [13] = target: Fuc(a1-2)Gal(b1-3)GlcNAc(b1-3)[Fuc(a1-2)Gal(b1-3)GlcNAc(b1-6)]GalNAc
# Summary of the method: as §1
# [14] = target: Fuc(a1-2)Gal(b1-3)GlcNAc(b1-3)[Gal(b1-4)GlcNAc(b1-6)]Gal(b1-4)Glc
# Summary of the method: as §1
# [15] = target: Fuc(a1-2)Gal(b1-3)GlcNAc(b1-3)[Neu5Ac(a2-6)Gal(b1-4)GlcNAc(b1-6)]Gal(b1-4)Glc
# Summary of the method: as §1
# [16] = target: Fuc(a1-2)Gal(b1-3)GlcNAc6S
# Summary of the method: as §1
# [17] = target: Fuc(a1-2)Gal(b1-3)[Fuc(a1-4)]GlcNAc
# Summary of the method: as §1
# [18] = target: Fuc(a1-2)Gal(b1-3)[Fuc(a1-4)]GlcNAc(b1-2)Man(a1-3)[Fuc(a1-2)Gal(b1-3)[Fuc(a1-4)]GlcNAc(b1-2)Man(a1-3)]Man(b1-4)GlcNAc(b1-4)GlcNAc
# Summary of the method: as §1
# [19] = target: Fuc(a1-2)Gal(b1-3)[Fuc(a1-4)]GlcNAc(b1-2)Man(a1-3)[Fuc(a1-2)Gal(b1-3)[Fuc(a1-4)]GlcNAc(b1-2)Man(a1-6)]Man(b1-4)GlcNAc(b1-4)[Fuc(a1-6)]GlcNAc(b1-4)[Fuc(a1-6)]GlcNAc
# Summary of the method: as §1
# [20] = target: Fuc(a1-2)Gal(b1-3)[Fuc(a1-4)]GlcNAc(b1-3)[Fuc(a1-3)[Gal(b1-4)]GlcNAc(b1-6)]Gal(b1-4)Glc
# Summary of the method: as §1
# [21] = target: Fuc(a1-2)Gal(b1-3)[Fuc(a1-4)]GlcNAc(b1-3)[Gal(b1-4)GlcNAc(b1-6)]Gal(b1-4)Glc
# Summary of the method: as §1
# [22] = target: Fuc(a1-2)Gal(b1-4)Glc
# Summary of the method: as §1
# [23] = target: Fuc(a1-2)Gal(b1-4)Glc6S
# Summary of the method: as §1
# [24] = target: Fuc(a1-2)Gal(b1-4)GlcNAc
# Summary of the method: as §1
# [25] = target: Fuc(a1-2)Gal(b1-4)GlcNAc(b1-2)Man
# Summary of the method: as §1
# [26] = target: Fuc(a1-2)Gal(b1-4)GlcNAc(b1-2)Man(a1-3)[Fuc(a1-2)Gal(b1-4)GlcNAc(b1-2)Man(a1-6)]Man(b1-4)GlcNAc(b1-4)GlcNAc
# Summary of the method: as §1
# [27] = target: Fuc(a1-2)Gal(b1-4)GlcNAc(b1-2)Man(a1-3)[Fuc(a1-2)Gal(b1-4)GlcNAc(b1-2)Man(a1-6)]Man(b1-4)GlcNAc(b1-4)[Fuc(a1-6)]GlcNAc
# Summary of the method: as §1
# [28] = target: Fuc(a1-2)Gal(b1-4)GlcNAc(b1-2)[Fuc(a1-2)Gal(b1-4)GlcNAc(b1-4)]Man(a1-3)[Fuc(a1-2)Gal(b1-4)GlcNAc(b1-2)Man(a1-6)]Man(b1-4)GlcNAc(b1-4)GlcNAc
# Summary of the method: as §1
# [29] = target: Fuc(a1-2)Gal(b1-4)GlcNAc(b1-3)Gal(b1-4)GlcNAc
# Summary of the method: as §1
# [30] = target: Fuc(a1-2)Gal(b1-4)GlcNAc(b1-3)Gal(b1-4)GlcNAc(b1-2)Man(a1-3)[Fuc(a1-2)Gal(b1-4)GlcNAc(b1-3)Gal(b1-4)GlcNAc(b1-2)Man(a1-6)]Man(b1-4)GlcNAc(b1-4)GlcNAc
# Summary of the method: as §1
# [31] = target: Fuc(a1-2)Gal(b1-4)GlcNAc(b1-3)Gal(b1-4)GlcNAc(b1-3)Gal(b1-4)GlcNAc
# Summary of the method: as §1
# [32] = target: Fuc(a1-2)Gal(b1-4)GlcNAc(b1-3)GalNAc
# Summary of the method: as §1
# [33] = target: Fuc(a1-2)Gal(b1-4)GlcNAc(b1-3)[Fuc(a1-2)Gal(b1-4)GlcNAc(b1-6)]GalNAc
# Summary of the method: as §1
# [34] = target: Fuc(a1-2)Gal(b1-4)GlcNAc(b1-3)[Fuc(a1-3)[Gal(b1-4)]GlcNAc(b1-6)]Gal(b1-4)Glc
# Summary of the method: as §1
# [35] = target: Fuc(a1-2)Gal(b1-4)GlcNAc(b1-6)GalNAc
# Summary of the method: as §1
# [36] = target: Fuc(a1-2)Gal(b1-4)GlcNAc6S
# Summary of the method: as §1
# [37] = target: Fuc(a1-2)Gal(b1-4)[Fuc(a1-3)]GlcNAc
# Summary of the method: as §1
# [38] = target: Fuc(a1-2)Gal(b1-4)[Fuc(a1-3)]GlcNAc(b1-2)Man(a1-3)[Fuc(a1-2)Gal(b1-4)[Fuc(a1-3)]GlcNAc(b1-2)Man(a1-6)]Man(b1-4)GlcNAc(b1-4)[Fuc(a1-6)]GlcNAc
# Summary of the method: as §1
# [39] = target: Fuc(a1-2)Gal(b1-4)[Fuc(a1-3)]GlcNAc(b1-2)[Fuc(a1-2)Gal(b1-4)[Fuc(a1-3)]GlcNAc(b1-4)]Man(a1-3)[Fuc(a1-2)Gal(b1-4)[Fuc(a1-3)]GlcNAc(b1-2)Man(a1-6)]Man(b1-4)GlcNAc(b1-4)GlcNAc
# Summary of the method: as §1
# [40] = target: Fuc(a1-2)Gal(b1-4)[Fuc(a1-3)]GlcNAc(b1-3)Gal(b1-4)[Fuc(a1-3)]GlcNAc
# Summary of the method: as §1
# [41] = target: Fuc(a1-2)Gal(b1-4)[Fuc(a1-3)]GlcNAc(b1-3)Gal(b1-4)[Fuc(a1-3)]GlcNAc(b1-3)Gal(b1-4)[Fuc(a1-3)]GlcNAc
# Summary of the method: as §1
# [42] = target: Fuc(a1-2)Gal(b1-4)[Fuc(a1-3)]GlcNAc(b1-3)GalNAc
# Summary of the method: as §1
# [43] = target: Fuc(a1-2)Gal(b1-4)[Fuc(a1-3)]GlcNAc(b1-3)[Neu5Ac(a2-6)Gal(b1-4)GlcNAc(b1-6)]Gal(b1-4)Glc
# Summary of the method: as §1
# [44] = target: Fuc(a1-2)Gal3S(b1-4)GlcNAc
# Summary of the method: as §1
# [45] = target: Fuc(a1-2)Gal6S(b1-3)GlcNAc
# Summary of the method: as §1
binder,measurement,setting,value
PX14375F-bfa-539-21-539 (Bacteroides fragilis) (protein) EDFLQKDPPSSPSQSVFWQKKSDFESALAGTYSVMYSGVFSQIMPCLDGLTDNAIVQHSEGTYGWAKTIAQGDLTPNQGGFVTDIYGNCYKGIARVHILMEQLDQYTGSDISADEKKFMLAQCKALRGYFYSWLYQCYKEVPVVTQSLDLNTMYQPKATRAEVLNRVMTDYDEAISELPDKLYSDSQTSGRFTVSAVKALKARILLFDAYDSNGKAISSKMEEVLTLLQSIKGYSLAARVRDNFISEKQLASPEIMFSVRFLRPNLTHSMDLYYGAWAVLDPTRNMVDAFECTDGKPWGESPLTVRPDESILYGNDDALKKAERAKMFMNRDRRLYESVNHSMMANFVDDGFKDEEVQVNESNNKGPTGFSALKYVQPTDVTPGYSTVSDADIVVLRYAHVLLMIAEAENEAHGATTTALNAINEVRTRSGQPAIEAGISQDDLRERIRNEWRIETCFEGLRYFQLKRWKLMDKRVNGVEDPAYPGYIKVYKPAFEFFPIPQSEIDKAGGVLKQDPAYE,glycan array binding signal (z-score),[1],-0.47
same,glycan array binding signal (z-score),[2],-0.358
same,glycan array binding signal (z-score),[3],0.852
same,glycan array binding signal (z-score),[4],-0.227
same,glycan array binding signal (z-score),[5],-0.131
same,glycan array binding signal (z-score),[6],1.21
same,glycan array binding signal (z-score),[7],-0.373
same,glycan array binding signal (z-score),[8],0.011
same,glycan array binding signal (z-score),[9],0.619
same,glycan array binding signal (z-score),[10],0.043
same,glycan array binding signal (z-score),[11],0.087
same,glycan array binding signal (z-score),[12],0.181
same,glycan array binding signal (z-score),[13],0.787
same,glycan array binding signal (z-score),[14],-0.583
same,glycan array binding signal (z-score),[15],0.71
same,glycan array binding signal (z-score),[16],0.693
same,glycan array binding signal (z-score),[17],-0.276
same,glycan array binding signal (z-score),[18],-0.377
same,glycan array binding signal (z-score),[19],0.238
same,glycan array binding signal (z-score),[20],-0.345
same,glycan array binding signal (z-score),[21],-0.219
same,glycan array binding signal (z-score),[22],-1.02
same,glycan array binding signal (z-score),[23],-0.391
same,glycan array binding signal (z-score),[24],-0.102
same,glycan array binding signal (z-score),[25],0.77
same,glycan array binding signal (z-score),[26],-0.707
same,glycan array binding signal (z-score),[27],-0.439
same,glycan array binding signal (z-score),[28],0.017
same,glycan array binding signal (z-score),[29],-0.058
same,glycan array binding signal (z-score),[30],-0.208
same,glycan array binding signal (z-score),[31],-0.687
same,glycan array binding signal (z-score),[32],0.334
same,glycan array binding signal (z-score),[33],0.212
same,glycan array binding signal (z-score),[34],0.539
same,glycan array binding signal (z-score),[35],0.17
same,glycan array binding signal (z-score),[36],-0.173
same,glycan array binding signal (z-score),[37],-0.409
same,glycan array binding signal (z-score),[38],0.094
same,glycan array binding signal (z-score),[39],1.49
same,glycan array binding signal (z-score),[40],-0.506
same,glycan array binding signal (z-score),[41],-0.644
same,glycan array binding signal (z-score),[42],0.387
same,glycan array binding signal (z-score),[43],-0.43
same,glycan array binding signal (z-score),[44],-0.537
same,glycan array binding signal (z-score),[45],-0.477
